Our source for the binding signal values is publication PMC12820563, “FoxP3 forms a head-to-head dimer in vivo and stabilizes its multimerization on adjacent microsatellites”.

The other results are listed elsewhere or left out.

The assay addresses T1, MBP-FoxP1dN (Mus musculus, UniProt P58462 326-579).
T1 sequence: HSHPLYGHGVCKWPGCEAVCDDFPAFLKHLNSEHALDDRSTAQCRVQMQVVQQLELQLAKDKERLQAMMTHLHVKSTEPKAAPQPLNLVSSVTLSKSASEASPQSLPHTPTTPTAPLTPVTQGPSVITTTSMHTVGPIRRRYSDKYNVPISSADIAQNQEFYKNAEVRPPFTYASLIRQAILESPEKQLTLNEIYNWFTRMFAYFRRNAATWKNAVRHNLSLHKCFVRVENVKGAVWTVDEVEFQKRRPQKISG
Nature of the assay: PD-seq (MBP pull-down with sequencing); 20 mM Tris-HCl pH 7.5, 100 mM NaCl, 1.5 mM MgCl2, 0.4 uM protein, 0.1 uM dsDNA library, 30 min, room temperature, amylose pull-down; high values mean tight binding. The note with it: protein: recombinant; tags: His6-MBP; chain copies: 2; dsDNA, one strand shown. The procedure, abridged:
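Protein and DNA were mixed at 0.4 µM and 0.1 µM and held for 30 min at room temperature in Tris pH 7.5 buffer with NaCl and MgCl2; the protein was a His6-MBP-tagged, N-terminally truncated mouse FoxP3 or FoxP1 fragment from E. coli, and the DNA a Klenow-filled double-stranded degenerate library. Amylose resin captured the complexes, which were washed three times. Binding is read as reads-per-million enrichment of pull-down versus input after Illumina sequencing, with replicates pooled.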
As for “GATGATTGTTCTCCCAGCTGATGAATTTTGCCCGTCGAGTAAACAAATTTTCCTAATCTTTCTGTTCAAGCGCCATCTAC”, the binding signal is 0.777 RPM ratio (pull-down/input). Then “GATGATTGTTCTCCCAGCTGATGAATTCAGAAACTCGAGTAAACAAATTTTCCTAATCTTTCTGTTCAAGCGCCATCTAC”, with 0.844 RPM ratio (pull-down/input); and “GATGATTGTTCTCCCAGCTGATGAATTATACATGTCGAGTAAACAAATTTTCCTAATCTTTCTGTTCAAGCGCCATCTAC”, with 1.12 RPM ratio (pull-down/input). In the case of “GATGATTGTTCTCCCAGCTGATGAATTGGACCATTCGAGTAAACAAATTTTCCTAATCTTTCTGTTCAAGCGCCATCTAC”, the binding signal is 0.919 RPM ratio (pull-down/input).

Take “GATGATTGTTCTCCCAGCTGATGAATTTAGGCCCTCGAGTAAACAAATTTTCCTAATCTTTCTGTTCAAGCGCCATCTAC”: the binding signal was 0.874 RPM ratio (pull-down/input). Then “GATGATTGTTCTCCCAGCTGATGAATTCTTAGTCTCGAGTAAACAAATTTTCCTAATCTTTCTGTTCAAGCGCCATCTAC”, with 0.852 RPM ratio (pull-down/input). As to “GATGATTGTTCTCCCAGCTGATGAATTCCCGGAATCGAGTAAACAAATTTTCCTAATCTTTCTGTTCAAGCGCCATCTAC”, the binding signal was 0.901 RPM ratio (pull-down/input).

For “GATGATTGTTCTCCCAGCTGATGAATTGAGTAACTCGAGTAAACAAATTTTCCTAATCTTTCTGTTCAAGCGCCATCTAC”, the binding signal is 0.883 RPM ratio (pull-down/input). Take “GATGATTGTTCTCCCAGCTGATGAATTGTGCATTTCGAGTAAACAAATTTTCCTAATCTTTCTGTTCAAGCGCCATCTAC”: the binding signal was 1.4 RPM ratio (pull-down/input). Then “GATGATTGTTCTCCCAGCTGATGAATTGTGTTCATCGAGTAAACAAATTTTCCTAATCTTTCTGTTCAAGCGCCATCTAC”, with 1.29 RPM ratio (pull-down/input); and “GATGATTGTTCTCCCAGCTGATGAATTCCTAATTTCGAGTAAACAAATTTTCCTAATCTTTCTGTTCAAGCGCCATCTAC”, with 0.96 RPM ratio (pull-down/input). Take “GATGATTGTTCTCCCAGCTGATGAATTCAATGATTCGAGTAAACAAATTTTCCTAATCTTTCTGTTCAAGCGCCATCTAC”: the binding signal is 0.982 RPM ratio (pull-down/input). Regarding “GATGATTGTTCTCCCAGCTGATGAATTTCAATGGTCGAGTAAACAAATTTTCCTAATCTTTCTGTTCAAGCGCCATCTAC”, the binding signal is 0.924 RPM ratio (pull-down/input). Consider “GATGATTGTTCTCCCAGCTGATGAATTACCACAATCGAGTAAACAAATTTTCCTAATCTTTCTGTTCAAGCGCCATCTAC”, for which the binding signal is 1.47 RPM ratio (pull-down/input).

On to “GATGATTGTTCTCCCAGCTGATGAATTCGCTAGCTCGAGTAAACAAATTTTCCTAATCTTTCTGTTCAAGCGCCATCTAC”, for which the binding signal is 0.798 RPM ratio (pull-down/input). Then “GATGATTGTTCTCCCAGCTGATGAATTGAATCAGTCGAGTAAACAAATTTTCCTAATCTTTCTGTTCAAGCGCCATCTAC”, with 0.887 RPM ratio (pull-down/input); and “GATGATTGTTCTCCCAGCTGATGAATTAACCGTGTCGAGTAAACAAATTTTCCTAATCTTTCTGTTCAAGCGCCATCTAC”, with 0.912 RPM ratio (pull-down/input). For “GATGATTGTTCTCCCAGCTGATGAATTGCATCCCTCGAGTAAACAAATTTTCCTAATCTTTCTGTTCAAGCGCCATCTAC”, the binding signal was 1.46 RPM ratio (pull-down/input).

For “GATGATTGTTCTCCCAGCTGATGAATTCTAATATTCGAGTAAACAAATTTTCCTAATCTTTCTGTTCAAGCGCCATCTAC”, the binding signal is 0.982 RPM ratio (pull-down/input). In the case of “GATGATTGTTCTCCCAGCTGATGAATTGAGGCTATCGAGTAAACAAATTTTCCTAATCTTTCTGTTCAAGCGCCATCTAC”, the binding signal was 1.01 RPM ratio (pull-down/input). Then “GATGATTGTTCTCCCAGCTGATGAATTTAGTCCATCGAGTAAACAAATTTTCCTAATCTTTCTGTTCAAGCGCCATCTAC”, with 1.01 RPM ratio (pull-down/input); and “GATGATTGTTCTCCCAGCTGATGAATTTACGTCCTCGAGTAAACAAATTTTCCTAATCTTTCTGTTCAAGCGCCATCTAC”, with 1.22 RPM ratio (pull-down/input). For “GATGATTGTTCTCCCAGCTGATGAATTACTGAATTCGAGTAAACAAATTTTCCTAATCTTTCTGTTCAAGCGCCATCTAC”, the binding signal is 1.11 RPM ratio (pull-down/input). Take “GATGATTGTTCTCCCAGCTGATGAATTGCGCGGGTCGAGTAAACAAATTTTCCTAATCTTTCTGTTCAAGCGCCATCTAC”: the binding signal is 0.959 RPM ratio (pull-down/input). Take “GATGATTGTTCTCCCAGCTGATGAATTTCACCCATCGAGTAAACAAATTTTCCTAATCTTTCTGTTCAAGCGCCATCTAC”: the binding signal is 0.921 RPM ratio (pull-down/input). As to “GATGATTGTTCTCCCAGCTGATGAATTGCGAAACTCGAGTAAACAAATTTTCCTAATCTTTCTGTTCAAGCGCCATCTAC”, the binding signal was 1.03 RPM ratio (pull-down/input). As to “GATGATTGTTCTCCCAGCTGATGAATTACACTATTCGAGTAAACAAATTTTCCTAATCTTTCTGTTCAAGCGCCATCTAC”, the binding signal is 1.26 RPM ratio (pull-down/input). With “GATGATTGTTCTCCCAGCTGATGAATTACAAGCATCGAGTAAACAAATTTTCCTAATCTTTCTGTTCAAGCGCCATCTAC”, the binding signal is 1.46 RPM ratio (pull-down/input). For “GATGATTGTTCTCCCAGCTGATGAATTGTAAAGGTCGAGTAAACAAATTTTCCTAATCTTTCTGTTCAAGCGCCATCTAC”, the binding signal is 0.894 RPM ratio (pull-down/input). Consider “GATGATTGTTCTCCCAGCTGATGAATTTCTAGGTTCGAGTAAACAAATTTTCCTAATCTTTCTGTTCAAGCGCCATCTAC”, for which the binding signal is 0.953 RPM ratio (pull-down/input). Then “GATGATTGTTCTCCCAGCTGATGAATTTCCATTATCGAGTAAACAAATTTTCCTAATCTTTCTGTTCAAGCGCCATCTAC”, with 0.999 RPM ratio (pull-down/input).
